# Test results from paper PMC6919601, “Identification of Plasmodium dipeptidyl aminopeptidase allosteric inhibitors by high throughput screening” (PLoS ONE, 2019).
# In all, about 110,000 compounds went through this assay and about 230 (0.21%) showed an effect of 50% or more. This is one part of the list.
# Target: DPAP1 (Plasmodium falciparum, UniProt Q8IIJ9)
# Assay: primary screen, percent inhibition; read by cleavage of a fluorogenic dipeptide substrate; higher = more effect of the substance
# Design: species or system P. falciparum D10 trophozoite lysates; single well
# 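Further: 30 min substrate incubation versus DMSO and 10 µM JCP410 controls.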
# Chain of DPAP1 (Q8IIJ9 whole entry, looked up): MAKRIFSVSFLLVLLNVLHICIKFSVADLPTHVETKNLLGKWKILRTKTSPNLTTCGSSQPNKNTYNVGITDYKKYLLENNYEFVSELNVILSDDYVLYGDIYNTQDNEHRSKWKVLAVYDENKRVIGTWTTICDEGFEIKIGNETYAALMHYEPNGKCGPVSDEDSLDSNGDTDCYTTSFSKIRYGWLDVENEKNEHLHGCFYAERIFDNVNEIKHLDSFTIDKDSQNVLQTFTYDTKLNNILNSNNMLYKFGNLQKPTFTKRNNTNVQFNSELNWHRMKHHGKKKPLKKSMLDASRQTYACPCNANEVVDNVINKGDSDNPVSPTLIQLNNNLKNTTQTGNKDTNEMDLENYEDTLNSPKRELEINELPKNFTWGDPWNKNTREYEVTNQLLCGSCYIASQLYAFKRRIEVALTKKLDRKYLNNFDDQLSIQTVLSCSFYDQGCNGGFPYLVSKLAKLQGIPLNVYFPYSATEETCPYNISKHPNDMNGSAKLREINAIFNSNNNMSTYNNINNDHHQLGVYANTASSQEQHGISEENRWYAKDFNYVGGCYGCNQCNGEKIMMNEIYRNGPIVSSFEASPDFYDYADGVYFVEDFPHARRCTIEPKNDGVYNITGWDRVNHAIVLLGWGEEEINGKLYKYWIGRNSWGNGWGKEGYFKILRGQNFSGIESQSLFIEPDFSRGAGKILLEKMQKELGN
row,SMILES,% Inhibition @ 10 uM [%]
1,CC(=O)Nc1ccc(NC(=O)C(C)Oc2cc(Cl)c(Cl)cc2Cl)cc1 (centres unmarked),0.231
2,Cc1nnc(NC(=O)CSc2nnc(CNC(=O)c3ccccc3)n2-c2ccc(F)cc2)s1,0.44
3,O=C(COc1ccc(S(=O)(=O)NCc2ccccc2)cc1)N1CCN(c2ccccc2)CC1,-0.318
4,CC1=C(C(=O)N2CCN(c3ccc(F)cc3)CC2)C(c2ccc(Cl)c(Cl)c2)C(C#N)=C(N)O1 (centres unmarked),9.61
5,CC(=O)c1cccc(NC(=O)C2C3/C=C\CCCCC32)c1 (centres unmarked),-9.68
6,Nc1nonc1-c1nc2ccccc2n1CC(=O)Nc1ccc(F)c(F)c1,2.44
7,Clc1ccccc1C1NCCc2[nH]cnc21 (centres unmarked),-2.63
8,Cc1ccccc1OCc1nc(C#N)c(NCc2ccco2)o1,-0.463
9,O=C(C1CCCN(S(=O)(=O)c2ccccc2)C1)N1CCCC(C(F)(F)F)C1 (centres unmarked),0.032
10,Cc1cc(Br)ccc1OCC(=O)Nc1ccc(S(=O)(=O)N2CCCC2)cc1,-3.45
11,COc1ccc(NC(=O)C2CC(=O)N=C(Nc3nc(C)c4ccccc4n3)N2)cc1 (centres unmarked),-4.15
12,N#Cc1c(N2CCCCC2)ncc2c(O)c3ccccc3nc12,0.431
13,C=CCOC(=O)C1=C(C)NC(=O)NC1c1ccc(F)cc1 (centres unmarked),1.13
14,C=CCn1c(COc2ccccc2)nc2ccccc21,-2.24
15,Cc1ccc(CNC(=O)C2CCCN(C(=O)c3cc4sccc4n3C)C2)cc1 (centres unmarked),-3.67
16,COc1ccc(C(O)(CCN2CCCCC2)C2CCCCC2)cc1 (centres unmarked),1.84
17,Cc1ccc(C2SC(C)C(=O)N2c2ccc(C)cc2)cc1 (centres unmarked),-3.44
18,Cc1ccc(NC(=O)CN2C(=O)S/C(=C\c3cc(C)n(C)c3C)C2=O)cc1,10.9
19,CC(C)C[C@H](NC(=O)c1cc(-c2ccsc2)cc(-c2ccsc2)c1)C(=O)NCC#N,-1.41
20,O=C(Nc1nccs1)c1ccc(NC(=O)C(c2ccccc2)c2ccccc2)cc1,-3.09
21,Cc1ccc(NC(=O)c2cnccn2)cc1Cl,-5.2
22,COc1cc2c(cc1OC)C1=C(c3ccc4c(c3C1)OCO4)N(C)CC2,-5.41
23,CC(C)C[C@H](NC(=O)OCc1ccccc1)C(=O)NC(C#N)c1cc(Br)cs1 (some centres unmarked),-3.04
24,CC(C)(C)Oc1ncc(-c2cccnc2)c(OC(C)(C)C)n1,3.81
25,CCCOC(=O)c1ccc(NC(=O)c2ccccc2C)cc1,3.47

row,SMILES,% Inhibition @ 10 uM [%]
1,CC(C)c1ccc(OCC(O)CNC(C)(C)C)cc1 (centres unmarked),-3.93
2,Cc1c(Cl)cccc1NC(=O)/C=C/c1ccc(C(C)C)cc1,0.912
3,CCOc1c(OC)cccc1C1CC(=O)NC2=C1C(=O)CC(C)(C)C2 (centres unmarked),2.35
4,Cc1c(Cc2ccccc2)sc(NC(=O)CCc2ccccc2)c1C(N)=O,-1.65
5,CCCNC(=O)Cn1cc(S(=O)(=O)N2CCCC2)c(S(=O)(=O)N2CCCC2)c1,-1.88
6,Cn1c2c(c(=O)n(C)c1=O)C(c1ccc(Br)cc1)C1=C(O)CCCC1=N2 (centres unmarked),0.726
7,COc1ccccc1-n1cc2c(c1-c1ccccc1Cl)c(=O)n(C)c(=O)n2C,2.02
8,CCOc1ccc(N(CC(=O)NC(C)(C)C)S(=O)(=O)c2ccc(C)cc2)cc1,2.51
9,CC(C)(C)Nc1nc(N2CCOCC2)nc(N2CCOCC2)n1,-4.35
10,C=CCN1C(=O)N/C(=C/c2cc(OC)c(O)c(OC)c2)C1=O,7.42
11,CC(=O)Nc1ccc(C(=O)N2CCCCCC2)cc1,-14.4
12,O=C(O)c1ccc(-c2ccncc2)s1,5.91
13,Cc1cc(C)nc(N2CCN(C(=O)c3cccc(Br)c3)CC2)n1,-4.75
14,O=C(NC(Cc1ccccc1)Cc1ccccc1)c1ccco1,2.79
15,CC(C)CC(C(=O)NCC#N)c1cccc2ccccc12 (centres unmarked),-8.26
16,Oc1cc(O)nc(SCc2ccccc2)n1,0.0345
17,Cc1[nH]c(-c2ccc(F)cc2)cc1C(=O)NCc1ccccc1Cl,7.1
18,COCCCNC(=O)c1cnc2ccc(S(=O)(=O)N3CC(C)CC(C)C3)cc2c1O (centres unmarked),-8.86
19,O=C(O)CCCCCNS(=O)(=O)c1c(Cl)cccc1Cl,-1.92
20,CCN(CC)C(=O)C1CCCN(Cc2cccc3ccccc23)C1 (centres unmarked),1.48
21,Cc1ccc(S(=O)(=O)N(C)c2ccccc2C(=O)NC2CCCC2)cc1,-4.14
22,O=C(Nc1ccc(Cl)cn1)c1ccc2c3c(cccc13)CC2,-3.19
23,COc1ccc(OC)c(CC2(NC(=O)c3ccccc3)N=C3C=C(C)C=CN3C2=O)c1 (centres unmarked),-6.01
24,COc1ccc(C(=O)Cn2c3ccccc3n3ncnc23)cc1,3.06
25,Cc1ccc2cc3cc(C(=O)NCCCN4CCN(Cc5ccccc5)CC4)oc3nc2c1,-1.54
